Results as given in the RNAGym collection of RNA variant scans (doi:10.7554/elife.90254).
Read counts are not given, so values of variants with three or more changes are uncertain.

B1: LINE1-full (parent)
chain: UACGUAGGUGGUUUUCCCCUGAUAGUGCUAAGGGGGCCUGGAAGUUUGGACUGGGCAGAGCUCAACACAGCGUGGCAAAGUGGCUGUGGCUAGACUGCCUCUCUGGAUUCCUCGUCACUCAGCAGGGCAUCUCUGAGAGAAAUGCC

Variants of: B1
Assay: self-cleavage, relative activity (ratio to wild type); higher = more cleavage; in vitro, sequencing; the parent is a self-cleaving ribozyme

| Variant | self-cleavage |
| --- | --- |
| UACGUAGGUGGUUCUCCCCUGAUAGUGCUAAGGGGGCCUGGAAGCCUGGACUGGGCAGAGCUCAACACAGCGUGGCUAAGUGGCUGUGGCUAGACUGCCUCUCUGGAUUCCUCGUCACUCAGCAGGGCAUCUCUGAGAGAAAUGCC [U14C U45C U46C A77U] | 1.99 |
| UACGUAGGUGGUUUUCCCCUGAUAGUGCCAAGGGGGCCUGGAAGUUUGGACUGGGCAGAGCUCAACACAGCGUGGCAGAGUGGCUGUGGCUAGACUGCCUCUCUGGAUUCCUCGUCACUCAGCAGGGCAUCUCUGAGAGGAAUGCC [U29C A78G A140G] | 0.44 |
| UACGUAGGUGGCUUUCCCCUGAUAGUGCUAAGGGGGCCUGGAAGUUUGGACUGGGCAGAGCUCAACACAGCGUGGCAAAGUGGCAGUGGCUAGACCGCCUCUCUGGAUUCCUCGUCACUCAGCAGGGCAUCUCUGAGAGAAAUGCC [U12C U85A U96C] | 0.08 |
| UACGUAGGUGGUUUUCCCCUGAUAGUGCUAAGGGGGCCUGGAAGUUUGGACUGGGCAGAGCUCAACUCAGCGUGGCAAAGUGGCUGUGGCCAGACUGCCUCUCUGGAUUCCUCGUCACUCAGCAGGGCAUCUCUGAGUGAAAUGCC [A67U U91C A138U] | 0.02 |
| UACGUAGGUGGUUUUCCCCUGAUAGAGCUAAGGAGGCCUGGAAGUUUGGACUGGGCAGAGCUCAACACAGCGUGGCAAAGUGGCUGUGGCUAGACUGCCUCUCUGGAUUCCUCGUCACUCAGCAGGGCAUCUCUGAGAGAAAAGCC [U26A G34A U143A] | 0.82 |
| UUCGUAGGUGGUUUUCCCCUGAUAGUGCUAAGGGGGCCUGGAAGUUUGGACUGGGCAGAGCUCAACACAGCGUGGCAAAGUGGCUGCGGCUAGACUGCCUCUCUGGAUUCCUCGUCACUCGGCAGGGCAUCUCUGAGAGGAAUGCC [A2U U87C A121G A140G] | 0.51 |
| UACGUAGGUGGUUUUCCCCUGAUAGUGCUAAGGGGGCCUGGAAGUCUGGACUGGGCAGGGCUCAACACAGCGAGGCAUAGUGGCUGUGGCUAGACUGCCUCUCUGGAUUCCUCGUCACUCAGCAGGGCAUCUCUGAGAGAAAUGCC [U46C A59G U73A A78U] | 0.11 |
| UACGUAGGUGGUCUUCCCCUGAUAGUGCUAAGGGGGCCCGGAAGUUUGGACUGGGCAGUGCUCAACACAGCGUGGCAAAGUGGCUGUGGCUAGACUGCCUCUCUGGAUUCCUCGUCACUCAGCAGGGCAUCUCUGAGAGAAAUGCC [U13C U39C A59U] | 0.66 |
| UACGUAGGUGGUUUUCCCCUGAUAGUGCCAAGGGGGCCUGGAAGUUUGGACUGGGCAGAGCUCAACACAGCGUGGCAAAGUGGCUGUGGCUAGACUGCCUCUCUGGAUUCCUUGUCACUCAGCAGGGCAUCUCUGAGAGAGAUGCC [U29C C113U A141G] | 1.43 |
| CACAUAGGUGGUUUUCCCCUAAUAGUGCUAAGGGGGCCUGGAAGUUUGGACUGGGCAGAGCUCAACACAGCGUGGCAAAGUGGCUGUGGCUAGACUGCCUCUCUGGAUUCCUCGUCGCUCAGCAGGGCAUCUCUGAGAGAAAUGCC [U1C G4A G21A A117G] | 1.41 |
| UACGUAGGUGGUCUUCCCCUGAUAGUGCUAAGGGGGCCUGGAAGUUUGGACUGGGCAGAGCUCAACACAGCGUGGCAAAGAGGCUGUGGCUAGACUGCCUCUCUGGGUUCCUCGUCACUCAGCAGGGCACCUCUGAGAGAAAUGCC [U13C U81A A107G U130C] | 2.21 |
| UACGUAGGUGGUUUUCCCCCGAUAGUGCUAAGGGGGCCUGGUAGUUUGGACUGGGCAGAGCUCAACACAGCGUGGCAAAGUGGCUGUGGCUAGACUGCCUCUCUGGGUUCCUCGUCACUCAGCAGGGCAUCUCUGAGAGAAAUGCC [U20C A42U A107G] | 0.99 |
| UACGUUGGUGGUUUUCCCCUGAUAGUGCUAAGGGGGCCUGGAAGUUUGGACUGGGCAGAGCUCAACACAGCGUGGCAAAGUGGCUGUGGUUAGACUGCCUCUCCGGAUUCCUCGUCACUCAGCAGGGCAUCUCUGAGAGAAAUGCC [A6U C90U U104C] | 0.05 |
| UACGUAGGUGGUUUUCCCCUGAUAGUGCUAAGGGGGCCUGGAAGUUUGGACUGGGCAGAGCUCACUACAGCGUGGCAAAGUGGCUGCGGCUAGACUGCCUCUCUGGAUUCCUCGUCACACAGCAGGGCAUCUCUGAGAGAAAUGCC [A65C C66U U87C U119A] | 0.02 |
| UACGUAGGUGGUUUUCCCCUGAUAGUGCUAAGGGGGCCUGGAAGUUUGGACUGGGCAGAGCUCAACACAGCGUGGCAAAGUGGCUGAGGCUAGACUGCCUCUCUGGAUUCCUCGUCACUCAGCAGGGCAUCUCUGAGAGGAACGCC [U87A A140G U143C] | 0.06 |
| UACGUAGGUGGUUUUCCCCUGAUAGUGCUAAGGGGGCCUGGAAGUAUGGACUGGGCAGAGCCCAACACAGCGUGGCAAAGUGGCUGUGGCUAGACUGCCUCUCUGGAUUCCUCGUCACUCAGCAGGGCAUCUCUGAGAGAAGUGCC [U46A U62C A142G] | 0.04 |
| UACGUAGGUGGUUUUCCCCUGAUAGUGCUAUGGGGGCCUGGAAGUUUGGACUGGGCAGUGCUCAACACAGCGUGGCAAAGUGGCUGUGGCUAGACUGCCUCUCUGGAUUCCUCGUCACUCAGCAGGGCUUCUCUGAGAGAAAUGCC [A31U A59U A129U] | 1.11 |
| UACGUAGGUGGUUUUCCCCUGAUAGUGCUGAGGGGACCUGGAAGUUUGGACUGGGCAGAGCUCAACACAGCGUGGCAAAGUGGCUGUGGCUAGACUGCCUCUCUGGAUUCCUCGUCACUCAGCAGGGCAUCUCCGAGAGAAAUGCC [A30G G36A U134C] | 0.63 |
| UACGUAGGUGGUUUUCCCCUGAUAGUGCUAAGGGGGCCUGGAAGUUUGGACUGGGCAGAGCUCAACACAGCGUGGCAAGGUGGCUGUGGCUAGACUGCCACUCUGGAUUCCUCGUCACUCAGCAGGGCUUCUCUGAGAGAAAUGCC [A79G U100A A129U] | 1.15 |
| UACGUAGGUGGUUUUCCCCUGAUAGUGCUAAGGGGGCCUGGAGGUUUGGACUGGGCAGAGCUCAACACAGCGUGGCAAAGUGGCUGUGGCUAGACUGCCUCACUGGAUUCCUCGUCACUCAGCUGGGCAUCUCUGAGAGAGAUGCC [A43G U102A A124U A141G] | 0.1 |
